Results as given in article PMC7615196, “PIM1 controls GBP1 activity to limit self-damage and to guard against pathogen infection” (Science (New York, N.Y.), 2023).
Substitutions are numbered along the chain they refer to. These are yes or no findings as the source states them, for the method shown. In cells and extracts the contact can be indirect. Some binding calls cover weakened binding; strength is not graded here. Sequences can lack the tags named with a protein. Each block holds one molecule with its values, some of them ahead of it.

The chains behind the UniProt entries cited, without tags or fusion partners.
UniProt P11309: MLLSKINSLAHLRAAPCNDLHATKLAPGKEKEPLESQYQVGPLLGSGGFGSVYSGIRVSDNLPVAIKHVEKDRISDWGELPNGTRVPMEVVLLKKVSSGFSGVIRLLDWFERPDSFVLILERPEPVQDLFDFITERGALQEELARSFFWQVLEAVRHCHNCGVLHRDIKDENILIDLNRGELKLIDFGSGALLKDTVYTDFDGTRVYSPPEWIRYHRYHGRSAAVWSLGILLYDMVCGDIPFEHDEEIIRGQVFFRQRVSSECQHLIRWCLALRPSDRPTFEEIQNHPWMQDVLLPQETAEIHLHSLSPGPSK

Assays:
[1] = target: T1, Flag-GBP1 WT (THP-1ΔGBP1+Tet-Flag-GBP1 cells) (human) (UniProt P32455); assay: cross-linking + co-IP; as a2, cells treated with the GBP1:PIM1 interaction inhibitor NSC756093 (100 nM on cells)
T1 sequence: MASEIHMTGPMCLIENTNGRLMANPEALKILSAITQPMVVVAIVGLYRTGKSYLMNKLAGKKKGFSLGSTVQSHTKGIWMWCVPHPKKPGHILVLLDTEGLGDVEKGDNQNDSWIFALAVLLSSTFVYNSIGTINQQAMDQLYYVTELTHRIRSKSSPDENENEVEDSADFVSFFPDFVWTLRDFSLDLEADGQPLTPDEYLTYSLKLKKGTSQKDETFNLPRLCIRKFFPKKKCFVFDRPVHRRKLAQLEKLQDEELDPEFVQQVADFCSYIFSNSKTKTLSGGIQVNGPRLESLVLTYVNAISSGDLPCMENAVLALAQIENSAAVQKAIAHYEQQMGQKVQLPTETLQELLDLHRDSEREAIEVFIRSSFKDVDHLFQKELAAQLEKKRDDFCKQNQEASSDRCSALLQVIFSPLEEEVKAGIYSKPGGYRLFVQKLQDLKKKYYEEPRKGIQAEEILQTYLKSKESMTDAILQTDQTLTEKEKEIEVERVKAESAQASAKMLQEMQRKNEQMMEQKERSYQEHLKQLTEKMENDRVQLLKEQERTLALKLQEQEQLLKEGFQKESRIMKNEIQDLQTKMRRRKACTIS

[2] = target: T1, Flag-GBP1 WT (THP-1ΔGBP1+Tet-Flag-GBP1 cells) (human); assay: cross-linking + co-IP; crosslinking and immunoprecipitation of Flag-GBP1 from THP-1ΔGBP1+Flag-GBP1 cells treated with IFNγ±Dox, immunoblot
[3] = target: T2, Flag-GBP1 WT (transient expression, pcDNA3.1(+)) (human) (UniProt P32455); assay: co-IP; immunoprecipitation of co-transfected Flag-GBP1 (WT or mutants) and HA-tagged 14-3-3 proteins, washes with 260 mM NaCl, immunoblot
T2 sequence: T1 sequence

[4] = target: T3, Flag-GBP1^R153A/P158A (transient expression) (human) (UniProt P32455); assay: as above
T3 sequence: T1 sequence with R153A, P158A

[5] = target: T4, Flag-GBP1^S156A (transient expression) (human) (UniProt P32455); assay: as above
T4 sequence: T1 sequence with S156A

[6] = target: T5, Flag-GBP1^T590A (transient expression) (human) (UniProt P32455); assay: as above
T5 sequence: T1 sequence with T590A

B1: HA-14-3-3β (natural protein)
chain: MTMDKSELVQKAKLAEQAERYDDMAAAMKAVTEQGHELSNEERNLLSVAYKNVVGARRSSWRVISSIEQKTERNEKKQQMGKEYREKIEAELQDICNDVLELLDKYLIPNATQPESKVFYLKMKGDYFRYLSEVASGDNKQTTVSNSQQAYQEAFEISKKEMQPTHPIRLGLALNFSVFYYEILNSPEKACSLAKTAFDEAIAELDTLNEESYKDSTLIMQLLRDNLTLWTSENQGDEGDAGEGEN
- binding [3]: binds
- binding [4]: no binding
- binding [5]: no binding
- binding [6]: binds

B2: HA-14-3-3γ (natural protein)
chain: MVDREQLVQKARLAEQAERYDDMAAAMKNVTELNEPLSNEERNLLSVAYKNVVGARRSSWRVISSIEQKTSADGNEKKIEMVRAYREKIEKELEAVCQDVLSLLDNYLIKNCSETQYESKVFYLKMKGDYYRYLAEVATGEKRATVVESSEKAYSEAHEISKEHMQPTHPIRLGLALNYSVFYYEIQNAPEQACHLAKTAFDDAIAELDTLNEDSYKDSTLIMQLLRDNLTLWTSDQQDDDGGEGNN
- binding [3]: binds
- binding [4]: no binding
- binding [5]: no binding
- binding [6]: binds

B5: HA-14-3-3ε (natural protein)
chain: MDDREDLVYQAKLAEQAERYDEMVESMKKVAGMDVELTVEERNLLSVAYKNVIGARRASWRIISSIEQKEENKGGEDKLKMIREYRQMVETELKLICCDILDVLDKHLIPAANTGESKVFYYKMKGDYHRYLAEFATGNDRKEAAENSLVAYKAASDIAMTELPPTHPIRLGLALNFSVFYYEILNSPDRACRLAKAAFDDAIAELDTLSEESYKDSTLIMQLLRDNLTLWTSDMQGDGEEQNKEALQDVEDENQ
- binding [3]: binds
- binding [4]: no binding
- binding [5]: no binding
- binding [6]: binds

Now from value to molecule, other results behind:

- binding [2]: binds
Molecule: PIM1 (endogenous, IFNγ-exposed THP-1 cells) (from UniProt P11309 1-313) (enzyme)
- binding [1]: no binding (condition: with NSC756093 (100 nM on cells))

- binding [3]: binds
- binding [4]: no binding
- binding [5]: no binding
- binding [6]: binds
B3: HA-14-3-3ζ (natural protein)
chain: MDKNELVQKAKLAEQAERYDDMAACMKSVTEQGAELSNEERNLLSVAYKNVVGARRSSWRVVSSIEQKTEGAEKKQQMAREYREKIETELRDICNDVLSLLEKFLIPNASQAESKVFYLKMKGDYYRYLAEVAAGDDKKGIVDQSQQAYQEAFEISKKEMQPTHPIRLGLALNFSVFYYEILNSPEKACSLAKTAFDEAIAELDTLSEESYKDSTLIMQLLRDNLTLWTSDTQGDEAEAGEGGEN

- binding [3]: binds
- binding [4]: no binding
- binding [5]: no binding
- binding [6]: binds
B4: HA-14-3-3η (natural protein)
chain: MGDREQLLQRARLAEQAERYDDMASAMKAVTELNEPLSNEDRNLLSVAYKNVVGARRSSWRVISSIEQKTMADGNEKKLEKVKAYREKIEKELETVCNDVLSLLDKFLIKNCNDFQYESKVFYLKMKGDYYRYLAEVASGEKKNSVVEASEAAYKEAFEISKEQMQPTHPIRLGLALNFSVFYYEIQNAPEQACLLAKQAFDDAIAELDTLNEDSYKDSTLIMQLLRDNLTLWTSDQQDEEAGEGN

- binding [3]: binds
- binding [4]: no binding
- binding [5]: no binding
- binding [6]: binds
B6: HA-14-3-3θ (natural protein)
chain: MEKTELIQKAKLAEQAERYDDMATCMKAVTEQGAELSNEERNLLSVAYKNVVGGRRSAWRVISSIEQKTDTSDKKLQLIKDYREKVESELRSICTTVLELLDKYLIANATNPESKVFYLKMKGDYFRYLAEVACGDDRKQTIDNSQGAYQEAFDISKKEMQPTHPIRLGLALNFSVFYYEILNNPELACTLAKTAFDEAIAELDTLNEDSYKDSTLIMQLLRDNLTLWTSDSAGEECDAAEGAEN
